Measured values: paper PMC6345720
Results are given in words; binding and its absence hold for the method and conditions named. In cells and extracts the contact can be indirect. Some binding calls cover weakened binding; strength is not graded here. Where a sequence is shown, tags or fusion partners need not be part of it.

Tests used:
[1] = target: T1, PLDδ-YFP-HA (35S::PLDδ-YFP-HA) (Arabidopsis thaliana) (UniProt Q9C5Y0); test: co-IP; PLD-YFP-HA and RPM1-Myc co-expressed in N. benthamiana leaves; microsomal fractions solubilised in 40 mM Tris-HCl pH 7.5, 150 mM NaCl, 1 mM DTT, 5 mM EDTA, 1% Triton X-100; PLD-YFP-HA precipitated with anti-GFP agarose beads at 4°C for 3 h; RPM1-Myc detected by blot
T1 sequence: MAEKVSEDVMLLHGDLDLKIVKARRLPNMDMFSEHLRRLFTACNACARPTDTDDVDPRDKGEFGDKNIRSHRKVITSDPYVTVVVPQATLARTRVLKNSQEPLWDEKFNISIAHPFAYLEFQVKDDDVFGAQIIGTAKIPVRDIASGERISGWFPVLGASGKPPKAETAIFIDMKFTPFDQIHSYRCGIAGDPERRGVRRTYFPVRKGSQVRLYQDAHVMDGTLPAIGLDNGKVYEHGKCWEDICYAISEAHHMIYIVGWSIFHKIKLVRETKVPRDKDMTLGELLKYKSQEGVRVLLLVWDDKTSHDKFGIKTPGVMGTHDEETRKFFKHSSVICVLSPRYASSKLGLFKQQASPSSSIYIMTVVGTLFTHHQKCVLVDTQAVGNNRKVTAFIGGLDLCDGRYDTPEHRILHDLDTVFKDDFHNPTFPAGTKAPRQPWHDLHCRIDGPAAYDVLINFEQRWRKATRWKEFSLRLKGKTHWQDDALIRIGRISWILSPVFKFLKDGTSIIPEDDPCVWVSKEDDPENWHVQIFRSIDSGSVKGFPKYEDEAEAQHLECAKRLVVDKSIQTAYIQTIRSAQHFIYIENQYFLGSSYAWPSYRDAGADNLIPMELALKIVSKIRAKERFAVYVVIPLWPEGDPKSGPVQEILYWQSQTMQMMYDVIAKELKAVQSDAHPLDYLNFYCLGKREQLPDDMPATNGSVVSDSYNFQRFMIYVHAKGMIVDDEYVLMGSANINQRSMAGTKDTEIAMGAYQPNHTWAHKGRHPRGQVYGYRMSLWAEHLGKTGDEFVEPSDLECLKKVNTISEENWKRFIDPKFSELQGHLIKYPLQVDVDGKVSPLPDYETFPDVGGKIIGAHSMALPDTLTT

[2] = target: T2, PLDβ2-YFP-HA (Arabidopsis thaliana) (UniProt O23078); test: as above
T2 sequence: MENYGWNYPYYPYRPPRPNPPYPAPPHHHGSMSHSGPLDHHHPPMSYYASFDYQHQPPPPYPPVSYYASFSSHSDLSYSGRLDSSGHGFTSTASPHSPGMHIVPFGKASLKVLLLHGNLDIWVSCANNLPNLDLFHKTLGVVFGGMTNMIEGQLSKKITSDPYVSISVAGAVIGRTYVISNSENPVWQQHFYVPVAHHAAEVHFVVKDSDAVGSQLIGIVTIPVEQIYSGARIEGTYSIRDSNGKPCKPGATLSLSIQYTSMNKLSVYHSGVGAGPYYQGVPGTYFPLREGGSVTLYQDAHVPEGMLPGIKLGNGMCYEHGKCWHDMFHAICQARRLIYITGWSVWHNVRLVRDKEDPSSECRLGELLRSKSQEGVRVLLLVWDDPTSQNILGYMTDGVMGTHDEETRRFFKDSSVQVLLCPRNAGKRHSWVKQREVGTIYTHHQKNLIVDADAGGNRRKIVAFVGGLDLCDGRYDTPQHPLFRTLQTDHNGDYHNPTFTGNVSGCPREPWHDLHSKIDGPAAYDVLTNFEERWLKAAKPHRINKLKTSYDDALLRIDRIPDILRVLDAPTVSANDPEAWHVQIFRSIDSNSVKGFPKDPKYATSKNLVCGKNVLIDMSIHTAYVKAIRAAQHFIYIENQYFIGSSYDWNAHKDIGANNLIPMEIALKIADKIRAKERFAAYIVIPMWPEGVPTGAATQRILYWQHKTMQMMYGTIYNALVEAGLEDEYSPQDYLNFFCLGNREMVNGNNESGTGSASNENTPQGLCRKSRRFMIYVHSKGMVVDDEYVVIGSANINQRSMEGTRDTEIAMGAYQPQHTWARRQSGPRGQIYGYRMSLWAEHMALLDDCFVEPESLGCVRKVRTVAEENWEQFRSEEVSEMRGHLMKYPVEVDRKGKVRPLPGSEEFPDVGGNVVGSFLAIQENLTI

binding [1]: binds | binding [2]: no binding
B1: RPM1-Myc (35S::RPM1-Myc) (receptor, UniProt Q39214 1-926)
chain: MASATVDFGIGRILSVLENETLLLSGVHGEIDKMKKELLIMKSFLEDTHKHGGNGSTTTTTQLFQTFVANTRDLAYQIEDILDEFGYHIHGYRSCAKIWRAFHFPRYMWARHSIAQKLGMVNVMIQSISDSMKRYYHSENYQAALLPPIDDGDAKWVNNISESSLFFSENSLVGIDAPKGKLIGRLLSPEPQRIVVAVVGMGGSGKTTLSANIFKSQSVRRHFESYAWVTISKSYVIEDVFRTMIKEFYKEADTQIPAELYSLGYRELVEKLVEYLQSKRYIVVLDDVWTTGLWREISIALPDGIYGSRVMMTTRDMNVASFPYGIGSTKHEIELLKEDEAWVLFSNKAFPASLEQCRTQNLEPIARKLVERCQGLPLAIASLGSMMSTKKFESEWKKVYSTLNWELNNNHELKIVRSIMFLSFNDLPYPLKRCFLYCSLFPVNYRMKRKRLIRMWMAQRFVEPIRGVKAEEVADSYLNELVYRNMLQVILWNPFGRPKAFKMHDVIWEIALSVSKLERFCDVYNDDSDGDDAAETMENYGSRHLCIQKEMTPDSIRATNLHSLLVCSSAKHKMELLPSLNLLRALDLEDSSISKLPDCLVTMFNLKYLNLSKTQVKELPKNFHKLVNLETLNTKHSKIEELPLGMWKLKKLRYLITFRRNEGHDSNWNYVLGTRVVPKIWQLKDLQVMDCFNAEDELIKNLGCMTQLTRISLVMVRREHGRDLCDSLNKIKRIRFLSLTSIDEEEPLEIDDLIATASIEKLFLAGKLERVPSWFNTLQNLTYLGLRGSQLQENAILSIQTLPRLVWLSFYNAYMGPRLRFAQGFQNLKILEIVQMKHLTEVVIEDGAMFELQKLYVRACRGLEYVPRGIENLINLQELHLIHVSNQLVERIRGEGSVDRSRVKHIPAIKHYFRTDNGSFYVSLSS
